Test results reported in PMC9911399, “Two distinct binding modes provide the RNA-binding protein RbFox with extraordinary sequence specificity”.
Changes are numbered by the printed parent chain; changes in the protein carry UniProt numbers. The list shows a part of the results.

T1: RBFOX1 RRM RbFoxmut (Fox-RRM*) (Homo sapiens, UniProt Q9NWB1 109-208, R118D;E147R;N151S;E152T)
T1 sequence: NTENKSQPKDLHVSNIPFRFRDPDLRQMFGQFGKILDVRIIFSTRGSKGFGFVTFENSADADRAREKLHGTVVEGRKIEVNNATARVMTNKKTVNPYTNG

B1: UACCCAG (DNA:RNA)
RNA: GGGAGACCGGAAUUCAGAUUGUCCUACCCAGUUAAAUCCCGUCGUAGCCACCA
DNA 1: CAATCTGAATTCCGGTCTCCC
DNA 2: TGGTGGCTACGACGGGATT
B2: GGGUGUA (DNA:RNA)
RNA: GGGAGACCGGAAUUCAGAUUGUCCGGGUGUAUUAAAUCCCGUCGUAGCCACCA
DNA 1: CAATCTGAATTCCGGTCTCCC
DNA 2: TGGTGGCTACGACGGGATT
B3: AUCUAGA (DNA:RNA)
RNA: B2 RNA with G25A, G26U, G27C, G29A, U30G
DNA 1: CAATCTGAATTCCGGTCTCCC
DNA 2: TGGTGGCTACGACGGGATT
B4: GGCCCUC (DNA:RNA)
RNA: B2 RNA with G27C, U28C, G29C, A31C
DNA 1: CAATCTGAATTCCGGTCTCCC
DNA 2: TGGTGGCTACGACGGGATT
B5: AUCUGAU (DNA:RNA)
RNA: B2 RNA with G25A, G26U, G27C, U30A, A31U
DNA 1: CAATCTGAATTCCGGTCTCCC
DNA 2: TGGTGGCTACGACGGGATT
B6: CACACGC (DNA:RNA)
RNA: B1 RNA with U25C, C28A, A30G, G31C
DNA 1: CAATCTGAATTCCGGTCTCCC
DNA 2: TGGTGGCTACGACGGGATT
B7: CGUCGGG (DNA:RNA)
RNA: B2 RNA with G25C, G27U, U28C, U30G, A31G
DNA 1: CAATCTGAATTCCGGTCTCCC
DNA 2: TGGTGGCTACGACGGGATT
B8: CAUACUC (DNA:RNA)
RNA: B1 RNA with U25C, C27U, C28A, A30U, G31C
DNA 1: CAATCTGAATTCCGGTCTCCC
DNA 2: TGGTGGCTACGACGGGATT
B9: UUUCAGG (DNA:RNA)
RNA: B1 RNA with A26U, C27U, C29A, A30G
DNA 1: CAATCTGAATTCCGGTCTCCC
DNA 2: TGGTGGCTACGACGGGATT

Target: T1, RBFOX1 RRM RbFoxmut (Fox-RRM*)
Assay: EMSA; HiTS-Eq, 1 nM pool, 10 min; buffer printed only for the single-RNA assays: 10 mM Tris pH 7.5, 150 mM NaCl, 3.4 mM EDTA, 0.001% NP-40, 30 C
Conditions: tags: His6 N-terminal (pET28a); label: 5' 32P
Outline: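 These values rest on relative association constants, computed from read-count changes of each RNA species versus the control reaction and normalised to the cognate motif. Reads came from free RNA recovered by 8% native PAGE after purified RbFox RRM (wild type or mutant) at increasing concentrations was equilibrated for 10 min in 50 µL with 1 nM of a 5′-radiolabelled pool with 7 randomized nucleotides and DNA-annealed flanks.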

Binder	binding signal
B1	0.102 KA relative to UGCAUGU
B2	0.222 KA relative to UGCAUGU
B3	0.103 KA relative to UGCAUGU
B4	0.0657 KA relative to UGCAUGU
B5	0.0592 KA relative to UGCAUGU
B6	0.0754 KA relative to UGCAUGU
B7	0.104 KA relative to UGCAUGU
B8	0.0699 KA relative to UGCAUGU
B9	0.0759 KA relative to UGCAUGU
